± gives the standard deviation of the averaged measurements. This is one part of the list.

The values that follow come from the supplement of paper PMC11417369.

The assay has as its system PfAP2-EXP AP2 domain (GST-tagged). The assay is described as follows: gcPBM binding intensity (ln(normalized median fluorescence intensity)); higher = stronger DNA binding. The procedure, abridged:
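GST-tagged P. falciparum DNA-binding domains produced in E. coli were incubated for 1 h on an Agilent 4 × 180k array of primer-extended double-stranded 36-bp intergenic genomic probes with negative controls. Binding intensity is the highest Masliner-normalised natural-log median intensity across replicate spots of either probe orientation, with bound protein detected by Alexa488 anti-GST antibody at 488 nm.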
As for “TAAAAAAAATATTTTTGTACGAATTAAATTTTTTTT [XGTACX_site4838]”, the “gcPBM binding intensity (ln)” value was 8.21 ± 0.3.

Regarding “TATGAAATTTTAATTACACACAGGAAAATAAAATGG [CACACA_site4935]”, the “gcPBM binding intensity (ln)” value was 8.67 ± 0.41.

As to “ACATATTTTTAATACACACTCAAAAAAGTACTTAAC [CACACA_site3014]”, the “gcPBM binding intensity (ln)” value was 8.54 ± 0.43.

As to “AAAAAAAGTAAATGTTGTACTATAATATGTAATATA [XGTACX_site7966]”, the “gcPBM binding intensity (ln)” value came to 8.48 ± 0.3.

“AAATAACACTAATGATGTACTCAACTATTTATAATT [XGTACX_site8183]”: the “gcPBM binding intensity (ln)” value was 8.32 ± 0.38.

As for “AACCACATACATATAACACACATATACAATCTATAT [CACACA_site1987]”, the “gcPBM binding intensity (ln)” value worked out at 8.69 ± 0.37.

Consider “TACATATATATTATATGTACTTATATTTTTATAATA [XGTACX_site3452]”, for which the “gcPBM binding intensity (ln)” value turned out to be 8.14 ± 0.3.

Regarding “ATATACATATCCATATTTATATCTATATTTAAAACA [CACACA_negctrl_site747]”, the “gcPBM binding intensity (ln)” value is 8.15 ± 0.4.

Turning to “TAGAGGTATAAAATATGTACTTATAAAAACATGAAT [XGTACX_site8916]”, the “gcPBM binding intensity (ln)” value stood at 8.85 ± 0.37.

For “AGAGGTAGAGAGAAAACATGCATAATGATTTTCATA [TGCATGCA_site958]”, the “gcPBM binding intensity (ln)” value turned out to be 8.46 ± 0.53.

Regarding “TTTTCCAATTTAAAAGCATGCATCTGTTTTTTTTTT [TGCATGCA_site482]”, the “gcPBM binding intensity (ln)” value is 9.02 ± 0.57.

“AAATTATTAAGTGATATAATATTCTATAGATGGGGA [CACACA_negctrl_site168]”: the “gcPBM binding intensity (ln)” value was determined as 8.46 ± 0.43.

For the sequence “TATATGATATAATATACACACATACAGATATATATA [CACACA_site4440]”, the “gcPBM binding intensity (ln)” value is 8.46 ± 0.33.

Turning to “TATTTACACCTAATCACAAATAAAATAAAATCAAAT [CACACA_negctrl_site531]”, the “gcPBM binding intensity (ln)” value worked out at 8.59 ± 0.51.

Take “TTTTTATAACTATATTATATAACTTTTGTACGAACT [CACACA_negctrl_site1423]”: the “gcPBM binding intensity (ln)” value came out at 8.23 ± 0.18.

For “ACATATAAATAAATAAATATATATATATATATATAT [GTGCAC_negctrl_site378]”, the “gcPBM binding intensity (ln)” value was found to be 10.1 ± 0.42.

As to “TAAATCAAAATAATTTAACACACAATTTTAATACTG [CACACA_site8744]”, the “gcPBM binding intensity (ln)” value came out at 8.14 ± 0.3.

For the sequence “GATAAGGTATTCAAATGTACAAAATGTTTTATATAA [XGTACX_site6863]”, the “gcPBM binding intensity (ln)” value came out at 8.39 ± 0.43.

As for “ACTTATACAAAATGTGCATGTTATATTTACAATAAT [TGCATGCA_site108]”, the “gcPBM binding intensity (ln)” value amounted to 8.79 ± 0.29.

With “AAATTAAATGTAAGCACACATAAATTATACTCATAT [CACACA_site5782]”, the “gcPBM binding intensity (ln)” value worked out at 8.36 ± 0.33.

Consider “GGAATAGTAATATATACACACAAATACATATATATA [CACACA_site67]”, for which the “gcPBM binding intensity (ln)” value is 8.74 ± 0.2.

Regarding “TTTATTTTTTAATGATGTACTATTTATCCAGAAAAG [XGTACX_site7750]”, the “gcPBM binding intensity (ln)” value is 8.43 ± 0.27.

Turning to “ATAAGCTCATGCAGGTGTACACAAAAAGAAAAAAAA [XGTACX_site2433]”, the “gcPBM binding intensity (ln)” value was found to be 9.15 ± 0.35.

For the sequence “ATAATGAAAAGGAACATACACACCCCATATAAATAT [CACACA_site3442]”, the “gcPBM binding intensity (ln)” value came to 9.4 ± 0.83.

With “AAAAAATTCAAAAGGTGTACAACATTATATTATTCC [XGTACX_site5118]”, the “gcPBM binding intensity (ln)” value amounted to 8.53 ± 0.3.

Consider “TATTGTTTTTTTTACTGTACACAAGTAAATGAAAAA [XGTACX_site790]”, for which the “gcPBM binding intensity (ln)” value stood at 8.37 ± 0.35.

Turning to “TCTGTATATTATTCAAGTACACAATATAAATATAAA [XGTACX_site7241]”, the “gcPBM binding intensity (ln)” value came to 8.41 ± 0.22.

Regarding “GAACAAATTAAATAGGTGCATTAACATGTTCTATTT [GTGCAC_site9729]”, the “gcPBM binding intensity (ln)” value worked out at 8.76 ± 0.092.

In the case of “AAAAATAAAAAAATAAATACGTATACATATATAATA [TGCATGCA_negctrl_site551]”, the “gcPBM binding intensity (ln)” value was 8.52 ± 0.32.

On to “GATAACTTTTTTCTCACACACAAATATTTTAATCAT [CACACA_site7685]”, for which the “gcPBM binding intensity (ln)” value was found to be 8.71 ± 0.39.

Consider “GTATATAATTAAAGTTGTACCCTTAAAAAAGGGAAA [XGTACX_site7278]”, for which the “gcPBM binding intensity (ln)” value was determined as 8.41 ± 0.19.

“AAAATGAAAATGAAAATGAAAATGGGAAAATGTCAA [TGCATGCA_negctrl_site488]”: the “gcPBM binding intensity (ln)” value worked out at 8.95 ± 0.56.

Turning to “TATAATTATATGTATACACACACATACATTTACATA [CACACA_site9061]”, the “gcPBM binding intensity (ln)” value worked out at 8.92 ± 0.27.

As to “CATATATATCGTAATGCACACATGTAATTTCATAAT [CACACA_site811]”, the “gcPBM binding intensity (ln)” value amounted to 8.85 ± 0.17.

Take “TAAATAAAAAAGAATACACACAGCATGCATAAATAT [CACACA_site237]”: the “gcPBM binding intensity (ln)” value was 9.6 ± 0.53.

On to “TTATATATAAGTTTATTCATTTTTTTTTTTTTTTTT [XGTACX_negctrl_site573]”, for which the “gcPBM binding intensity (ln)” value was 8.44 ± 0.18.

“TAACACCAAACTAAATGTACACACATACATAAATAT [XGTACX_site2201]”: the “gcPBM binding intensity (ln)” value was determined as 8.72 ± 0.59.

Consider “TCTTATATGATATTTATTTATTTATTTATTTATTCA [GTGCAC_negctrl_site686]”, for which the “gcPBM binding intensity (ln)” value was 8.39 ± 0.28.

On to “AATGAATAATTATTTTGTACATAATATTATATTTAT [XGTACX_site5350]”, for which the “gcPBM binding intensity (ln)” value worked out at 8.34 ± 0.36.

As for “TTTATTTTTTGTGGCACACAGAAGAAACAAGAACAA [CACACA_site1696]”, the “gcPBM binding intensity (ln)” value came to 9.12 ± 0.35.

For the sequence “TAAATGTGAACAATAGAAGTAATAAGAAGAATAAAA [CACACA_negctrl_site1080]”, the “gcPBM binding intensity (ln)” value was found to be 8.94 ± 0.39.

In the case of “AATAGTAATTTGAATACACACAATAATATATTTATA [CACACA_site7055]”, the “gcPBM binding intensity (ln)” value stood at 8.41 ± 0.31.

As for “CAACTAATATTAAAACGTACATAAATATTTAACAGA [XGTACX_site625]”, the “gcPBM binding intensity (ln)” value came to 8.71 ± 0.35.

With “ATCACATATATATATAATATATATATGTATATATTT [GTGCAC_negctrl_site249]”, the “gcPBM binding intensity (ln)” value came out at 8.18 ± 0.5.
